Source: PubChem BioAssay AID485344 (National Center for Advancing Translational Sciences (NCATS), 2010)
Several values for one entry are separate records, joined by “and”; a condition that tells them apart may be missing. Equal entries are not always repeated. About 6,900 (2%) of roughly 340,000 compounds were called active. Cut-off read from the data, not from the text of the source: active = inhibition above about 30%; inactive = below that, where a call was filed. Only a part is listed here, and it is no random draw. Entries without a call were filed so in the source.

These molecules were tested against D(2) dopamine receptor (Homo sapiens) (UniProt P14416) (assay: HTS Assay for Allosteric Antagonists of the Human D2 Dopamine Receptor: Primary Screen for Antagonists). Details: HEK293 TREx D2 cells, calcium flux, dopamine EC80; at 10 µM; stronger effect = higher value.
How it was run: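 Antagonism is scored as inhibition of an EC80 dopamine-evoked calcium signal in a force-coupled, tetracycline-inducible HEK293 T-REx D2 line, with compound present 180 s before agonist.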
Note: 0% is about no effect.

Chain of UniProt P14416 (P14416 whole entry, looked up): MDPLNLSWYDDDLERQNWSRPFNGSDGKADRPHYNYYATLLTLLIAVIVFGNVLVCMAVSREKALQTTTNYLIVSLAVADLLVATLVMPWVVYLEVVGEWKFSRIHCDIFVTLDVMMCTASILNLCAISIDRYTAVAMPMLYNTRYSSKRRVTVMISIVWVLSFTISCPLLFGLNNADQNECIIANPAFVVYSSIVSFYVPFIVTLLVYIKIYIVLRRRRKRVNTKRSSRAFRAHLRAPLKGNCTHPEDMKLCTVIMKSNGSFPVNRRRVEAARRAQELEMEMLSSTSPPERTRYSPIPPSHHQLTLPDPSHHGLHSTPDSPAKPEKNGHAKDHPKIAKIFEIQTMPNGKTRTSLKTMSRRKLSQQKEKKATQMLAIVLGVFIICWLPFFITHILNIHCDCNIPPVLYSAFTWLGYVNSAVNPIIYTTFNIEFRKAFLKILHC

SMILES | inhibition
Cc1cccc(Cn2cc3c(=O)n(CC(=O)Nc4ccc(C)c(F)c4)nc-3c3cc(F)ccc32)c1 | 0.879%
COc1ccc(CC(=O)NCc2nc3cccnc3n2Cc2ccc(C)cc2)cc1OC | 8.03%
CCCC(=O)Nc1nnc2n1CCS2 | -10.4%
O=C(CSc1nc2c(c(=O)[nH]1)CN(Cc1ccc3c(c1)OCO3)CC2)Nc1cccc(Cl)c1 | 14.9%
Cc1nc2c(c(C)nn2-c2ccccc2)c(C)c1CCC(=O)NCCc1ccccc1 | 2.17%
CN(C(=O)C1=CC(c2ccc3c(c2)OCO3)=NS(=O)(=O)N1C)c1ccccc1 | -13.3%
COc1ccc(N2CC(NC(=O)c3cc4ccccc4o3)CC2=O)cc1OC (stereo not given) | -23.8%
CCc1cccc(NS(=O)(=O)c2c(C)nc3sc(CC)nn3c2=O)c1 | -2.53%
Cc1ccc(NC(=O)Cn2c(=O)n(CCc3ccccc3)c(=O)c3c4c(sc32)CCCC4)c(C)c1 | -0.731%
O=c1oc2ccc(Br)cc2cc1-c1csc(-c2ccccc2)n1 | 0.756%
CCOC(=O)c1cc(NC(=O)c2ccc(C)cc2)c(=O)n2c1oc1ccc(Cl)cc12 | 0.0849%
COC(=O)c1ccc(NC(=O)c2cc(=O)c3ccc(C)cc3o2)cc1 | 7.82%
CCCc1nc2ccccc2n2c(-c3ccc(C)cc3)c3c(=O)n(C)c(=O)n(C)c3c12 | 0.868%
Cc1ccc2c(c1)N(CC(=O)NCc1ccccc1Br)C(=O)c1cccnc1O2 | 11.4%
CC(=O)c1cccc(NC(=O)c2c(N3CCCC3=O)c3cc(F)ccc3n2C)c1 | 4.56%
CCSc1ncc(Cl)c(C(=O)Nc2c(C(=O)c3ccc(C)c(F)c3)oc3ccccc23)n1 | -5.63%
COc1ccccc1NC(=O)c1c(NC(=O)c2ccco2)sc2c1CCC(C(C)(C)C)C2 (stereo not given) | -5.27%
O=C(NC1=NCCS1)C12CC3CC(CC(C3)C1)C2 | active: 50.1%
Cc1cccc(N2CCN(C(=O)c3cnn(-c4cccc(Cl)c4C)c3C3CCNCC3)CC2)c1C | 14.4%
Cc1ccc(-c2noc(CSc3nnc(Cc4ccccc4)n3-c3cccc(C)c3)n2)cc1 | 4.53%
O=C(NCC(c1cccnc1)N1CCc2ccccc2C1)C(=O)Nc1ccc(Cl)cc1 (stereo not given) | -0.42%
Cc1cc(C)c(NC(=O)Cn2c(=O)n(Cc3ccco3)c(=O)c3ccc(C(=O)NC4CCCC4)cc32)c(C)c1 | 14.8%
Cn1nnc2c(NCCc3ccccc3)ncnc21 | 7.49%
CCN(C(=O)CCn1cnc2onc(-c3ccc(F)cc3)c2c1=O)c1ccc(OC)cc1 | 3.35%

SMILES | inhibition
COc1ccc(Nc2nc3ccccc3c3nnc(C)n23)cc1Cl | 16.3%
CCc1cccc(-n2nnc(-c3nc(-c4ccccc4Cl)no3)c2N)c1 | -6.64%
O=C(CCS(=O)(=O)c1nc(-c2ccc3c(c2)OCO3)cc(C(F)(F)F)n1)Nc1ccccc1F | 4.09%
O=C(NNC(=O)c1cccs1)c1ccc([N+](=O)[O-])cc1 | active: 61.3%
CCn1c(=O)cc(SCC(=O)NCCc2ccc(Cl)cc2)c2ccccc21 | 9.54%
CCOC(=O)C1CCC(CN(Cc2ccc(Cl)cc2)S(=O)(=O)c2ccc(F)c(C(=O)Nc3cccc(F)c3)c2)CC1 (stereo not given) | -3.47%
Cc1cc(C)cc(OCCCOc2cccc3cccnc23)c1 | active: 33.1%
COc1ccccc1Nc1cc(C(=O)NC2CCCC2)c2ccccc2n1 | 12.7%
COc1ccc(S(=O)(=O)N2CCCCC2)cc1C(=O)Nc1cccc(C(F)(F)F)c1 | -0.291%
CCOC(=O)c1cnc(NCc2ccccc2OC)c2ccccc12 | 2.44%
S=C1Cc2ccccc2C(c2ccc(Cl)cc2)N1 (stereo not given) | active: 33%
COc1ccc(/C=C/C(=O)Nc2sc3c(c2C(N)=O)CCCC3)cc1 | -16.7%
CCn1cc(C(=O)NCc2ccccc2OC)c(=O)c2cc(S(=O)(=O)N3CCCCC3)ccc21 | 9.13%
O=C(CCN1C(=O)C2C3C=CC(C3)C2C1=O)N1CC(=O)N(CCc2ccccc2)C(=O)C1 (stereo not given) | active: 31.3%
CCc1ccc2oc(C(=O)Nc3cccc(C(F)(F)F)c3)cc(=O)c2c1 | 4.18%
O=C(c1ccc(-c2ccccc2)cc1)C1CCCN(Cc2ccncc2)C1 (stereo not given) | active: 74.6%
CSc1nn(Cc2ccc(Cl)cc2)c(N(C(C)=O)C(C)=O)c1S(=O)(=O)c1ccccc1 | 15.4%
Cc1ccc(NS(=O)(=O)c2ccc3[nH]c(=O)ccc3c2)cc1N(C)C | -10.3%
C#CCOc1ccc(-c2nnc(Nc3cccc(C)c3)c3ccccc23)cc1 | 1.03%
Cc1cccc(Cn2c(=O)n(CCc3ccccc3)c(=O)c3c(C)c(C)sc32)c1 | -8.95%
Cc1ccc(NC(=O)c2cc(C)nc3c2c(C)nn3-c2cccc(Cl)c2C)c(C)c1 | -7.48%
COc1ccc(-c2ccc(=O)n(CC(=O)Nc3ccc(C)cc3C)n2)cc1 | -3.77%
O=c1n(Cc2cccc(C(F)(F)F)c2)c2ccccc2c2nc(-c3ccccc3)nn12 | -9.81%
COc1ccc(-c2noc(CCC(=O)NCc3ccc(C)cc3)n2)cc1 | -3.57%

SMILES | inhibition
Cc1ccc(CNC(=O)CCCCCn2c(=O)c3sccc3n(CC(=O)N(C)c3ccccc3)c2=O)cc1 | -1.78%
CCOC(=O)c1cccc(NC(=O)Cn2ncc3c4ccccc4n(Cc4ccccc4)c3c2=O)c1 | -3.4%
Cc1ccc(C(=O)Nc2ccc3oc(-c4ccc(C(C)(C)C)cc4)nc3c2)cc1 | 4.33%
COC(=O)c1ccc(OC)c(Cn2c(=O)n(Cc3ccccc3)c(=O)c3c2c2cc(OC)ccc2n3C)c1 | -11.4%
CC(=O)c1ccc(NC(=O)C2=CC(c3ccc4c(c3)OCO4)=NS(=O)(=O)N2C)cc1 | 12.9%
CCCCOc1ccc(C(=O)N2CCN(CCc3ccccn3)CC2)cc1 | -20.4%
CNC(=O)c1cc(Nc2nnc(-c3ccc(O)cc3)c3ccccc23)ccc1OC | 2.11%
O=C1CCCc2cc(S(=O)(=O)NCC3CCC(C(=O)Nc4ccccc4F)CC3)ccc2N1 (stereo not given) | 5.01%
CC(NC(=O)c1ccccc1NC(=O)c1nsc2ccccc12)c1ccccc1 (stereo not given) | -0.674%
COc1ccc(OC)c(NC(=O)CCN2CCN(c3ccccc3)CC2)c1 | active: 80.4%
O=C(NCC12CC3CC(CC(C3)C1)C2)c1cc2nc(-c3ccccc3)cc(C(F)(F)F)n2n1 | 12.4%
COc1ccc(N2CCN(C(=O)c3cc4ccc5cccnc5c4[nH]3)CC2)cc1 | 10.6%
CS(=O)(=O)N(CC(=O)NCCc1ccccc1)c1cc(C(F)(F)F)ccc1Cl | -17.3%
Cc1cccc(-c2nnn3c2nc(NCCc2ccc(S(N)(=O)=O)cc2)c2cc(Cl)ccc23)c1 | -1.25%
CSc1ccc(-c2nc3ccc(C)cn3c2Nc2ccccc2C)cc1 | -7.63%
CCOc1ccc(NC(=O)CC2C(=O)OCCN2CC)cc1 (stereo not given) | 18.4%
COc1ccc(OC)c(-n2cnc3cc(C(=O)NC4CCCCCC4)ccc32)c1 | 7.95%
COc1ccccc1NC(=O)c1cnc(SCC(=O)N2CCCc3ccccc32)n(C)c1=O | -18.4%
Cc1ccccc1CCNC(=O)c1ccc2c(c1)c(C)c(C)n2Cc1ccccc1 | 0.293%
CCOc1ccc(CNC(=O)CSc2nnc(C)c3c(C)n(-c4ccccc4)nc23)cc1 | 6.73%
CN1CCN(C2=Nc3ccccc3Oc3ccc(Cl)cc32)CC1 | active: 85.2% and active: 91%
CC(C)CN(CCCNC(=O)CN1C(=O)CSc2ccc(S(=O)(=O)N3CCOCC3)cc21)CC(C)C | 22.1%
CCc1ccccc1N1C(=O)N(Cc2ccccc2C)c2ccccc2S1(=O)=O | 13.2%
COc1ccc(S(=O)(=O)n2ccnc2)cc1C(C)(C)C | -22.8%

SMILES | inhibition
COc1ccc(OC)c2sc(N3CCN(C(=O)C4CC4)CC3)nc12 | 14.7%
Cc1ccc(S(=O)(=O)Nc2cccc(-c3cn4cccc(C)c4n3)c2)cc1 | -17.2%
O=C(Nc1ccc(Cl)cc1Cl)c1cc(S(=O)(=O)N2CCc3ccccc32)ccc1F | 18.1%
CCc1ccc(C2CC(=O)Nc3cc4c(cc32)OCO4)cc1 (stereo not given) | 27.6%
Cc1ccc(C)c(Nc2nc3c(S(=O)(=O)c4ccc(C(C)C)cc4)nnn3c3ccsc23)c1 | 18.9%
Cc1cccc(N2CCN(C(=O)c3c(C)oc4ncnc(N5CCCCC5)c34)CC2)c1C | -6.21%
CCOC(=O)c1noc2nc(C)n(CC(=O)Nc3ccccc3F)c(=O)c12 | 11.2%
CC1=C(C(=O)N2CCN(c3cccc(C(F)(F)F)c3)CC2)C2(CCCCC2)OC1=O | 17.7%
CC1=C(C)/C(=N/OC(=O)c2cccc([N+](=O)[O-])c2)C=CC1=O | active: 34%
Cc1cccc(-c2nc(CSc3nc4c(c(=O)[nH]3)CCC4)c(C)o2)c1 | active: 43.4%
COc1ccccc1CNC(=O)CN1C(=O)CSc2ccc(S(=O)(=O)N3CCCCC3)cc21 | 4.26%
COC(=O)c1c(Oc2ccc(C(C)=O)cc2)nnc(-c2ccccc2)c1-c1ccccc1 | -12.1%
CCCc1c(C)c2ccc(O)c(CN3CCN(c4ccc(F)cc4)CC3)c2oc1=O | -4.92%
Cc1ccc(NC(=O)Cn2cc3c(n2)CCCCC3)cc1 | 3.68%
Cc1ccc2c(c1)-c1nc(-c3ccc4c(c3)NC(=O)CO4)cc(-c3ccc(Cl)cc3)c1CO2 | -8.79%
Cn1c(=O)c2c([nH]c(=O)n2Cc2ccc(Cl)cc2Cl)n(C)c1=O | -6.35%
Cc1ccc2nc(N3CCN(C(=O)C4CC4)CC3)sc2c1 | 2.63%
CC1CCCN(CCCNC(=O)c2cn(C)c3ccc(S(=O)(=O)N(C)C4CCCCC4)cc3c2=O)C1 (stereo not given) | 6.79% and active: 36.5%
Cc1ccc(NS(=O)(=O)c2ccc3nc(-c4ccccc4)[nH]c3c2)c(Cl)c1 | -3.34%
CCn1c(CNC(=O)C23CC4CC(CC(C4)C2)C3)nnc1SCC(=O)Nc1ccccc1 | 2.52%
Cc1ccc(C)c(OCCn2cc(C(=O)c3ccco3)c3ccccc32)c1 | -5.73%
COc1ccc(-c2nc(CNS(=O)(=O)c3ccccc3)cs2)cc1 | 10.8%
COc1cccc(CNC(=O)c2cc3c(s2)-c2c(C)cccc2OC3)c1 | -12.9%
